Test results published in ChEMBL document CHEMBL4888484, “Replenishing the malaria drug discovery pipeline: Screening and hit evaluation of the MMV Hit Generation Library 1 (HGL1) against asexual blood stage Plasmodium falciparum ,using a nano luciferase reporter read-out” (2022).
Screen size: about 150,000 compounds; about 540 (0.36%) showed an effect of 50% or more. The list shows a part of the results.

system: Plasmodium falciparum; experiment: Primary screen in NF54 nanoGlo assay, in single point, at 2uM, 72h; a lower Z score goes with more inhibition; assay type: functional, Erythrocyte; conditions: timepoint 72 hour

SMILES | % Inhibition | Z score
Nc1nc2c(c(-c3ccccc3)n1)CN(C(=O)CCc1c[nH]c3ccccc13)C2 | -11% | 2.12
COc1ccc2ccccc2c1-c1nc2c(cnn2[C@@H](C)C2CC2)[nH]1 | 10% | -1.39
CC(=O)Nc1nnc(-c2ccsc2)o1 | -7% | 1.09
COCCN1CCN(c2nc(-c3cccs3)c3c(N)n(-c4cccc(C)c4)nc3n2)CC1 | -14% | 1.97
Cc1cccc2sc(N(CCN(C)C)C(=O)c3ccc(S(=O)(=O)N(C)C[C@H]4CCCO4)cc3)nc12 | 19% | -2.4
CN(C[C@H]1COc2ccccc2O1)C(=O)CN1C(=O)CCNC1=O | 0% | 0.06
COc1ccc(S(=O)(=O)N2CC(OCc3ccccc3)C2)cc1OC | -14% | 2.16
COCCN(Cc1c(-c2ccccc2)nn(C)c1Oc1ccc(F)cc1)C[C@@H](O)Cc1ccccc1 | -9% | 1.34
Cc1cc(NC(=O)c2ccc3c(c2)C(=O)N(C[C@H]2CCCO2)C3=O)no1 | -8% | 1.45
COCCN1C(=O)N[C@@H]2CN(C(=O)c3ccnn3C3CCC3)CC[C@@H]21 | -4% | 0.45
COc1ccc(N2C(=O)c3cc(C(C)(C)C)nn3C[C@@]2(C)C(=O)NC2CCCCCC2)cc1 | -6% | 0.92
c1ccc2c3c(ccc2c1)[C@@H](NCc1cc[nH]n1)CCCO3 | -8% | 1.51
CN1CCC(C)(C(=O)NCCC[C@H]2CCOC2)CC1 | -11% | 2.14
COc1cc([C@H]2CC(=O)Nc3cccc4c3c2cn4Cc2cccc(F)c2)ccc1O | -6% | 1.01
CC1(c2cc(-c3ccncc3)c(C#N)c(N)n2)CC1 | -1% | 0.07
O=C(Cc1cccc(F)c1)N1CCCN(C(=O)[C@H]2CCCOC2)CC1 | -2% | 0.43
O=C(CN1C(=O)c2ccccc2C1=O)N1CCCN(C(=O)CN2C(=O)c3ccccc3C2=O)CC1 | -7% | 0.9
O=C(NCCC(=O)N1CCC[C@H](c2nc(=O)[nH][nH]2)C1)C1CCCCC1 | 30% | -3.34
Cc1nn(CC(=O)N[C@H]2CCN(Cc3cscn3)C[C@@H]2O)cc1Cl | -20% | 3.98
Cc1nn(-c2nncc(-c3ccc(Cl)cc3)n2)c2c1[C@@H](c1cc(F)ccc1F)CC(=O)N2 | 28% | -2.32
O=C(Nc1ccc(F)cc1)[C@@H]1CC(O)=Nc2c(-c3ccccc3)cnn21 | -9% | 1.69
Cc1c(Cl)cccc1N1C(=O)C2C3C=CC(C3=C3CCCCC3)C2C1=O (stereo unspecified) | 3% | -0.38
c1cc([C@H]2CCOC2)ccc1OCc1noc2c1CCCC2 | -17% | 3
O=C(NCC(=O)N1CCN(c2ccc(F)cc2)CC1)OCc1ccccc1 | -12% | 1.8
O=C(O)[C@@H]1CCCN1C(=O)CCN1CCCC1=O | -2% | 0.25
CN(C)C(=O)c1cn(C2CN(Cc3ccc(F)cc3F)C2)nn1 | -12% | 2.26
CC1CCCNC1CNC(=O)OC(C)(C)C (stereo unspecified) | -5% | 0.64

SMILES | % Inhibition | Z score
CCCOc1ccc(Br)cc1C(N)=O | 34% | -3.87
CC(C)c1csc(C2CCCN(C3CCOC3=O)C2)n1 (stereo unspecified) | -7% | 0.69
CN1CC2CN(C(=O)NCc3ccc(F)cc3)CC(C1)O2 | -17% | 2.08
Cn1ccc(N[C@@H](C(=O)NC2CC2)c2ccccc2)n1 | -7% | 1.17
CC(=O)N[C@H]1CN(C(=O)c2ccoc2C)C[C@@H]1c1ccc(C)cc1 | -14% | 1.78
COc1ncccc1C(=O)N1C2CCC1CC(n1ccnn1)C2 (stereo unspecified) | -9% | 1.35
Cc1ccc(-c2cnc(C3CC3)o2)cc1S(=O)(=O)Nc1cccc(C)c1C | -2% | 0.33
CCN(C(=O)c1nnn(-c2cccc3cccnc23)c1C)[C@H]1CC(=O)NC1=O | -9% | 1.16
Cc1c(F)cccc1-n1nnc(C(=O)NCCc2cccs2)c1C | -3% | 0.38
O=S(=O)(CCC1CCc2ccccc21)N1CCC2COCC2C1 (stereo unspecified) | 35% | -3.98
CCOC(=O)c1nc2n(c1-c1cccc(C#N)c1)CCCC2 | -28% | 3.05
O=C(COC(=O)CCC1CCCCC1)Nc1ccc2c(c1)OCO2 | -8% | 1.5
CCOc1ccc(CNCCOCCO)cc1Cl | -8% | 0.89
CCCn1nc(C(=O)N(Cc2ccccc2)c2ccccc2)ccc1=O | -13% | 1.41
C[C@@H](c1nnnn1C)N1CCN(Cc2ccc(Br)cc2)CC1 | 33% | -3.78
CCc1cnc(C)nc1N(C)CC1(CO)CCOCC1 | 0% | -0.05
Cc1nc(CC(N)=NOCC(=O)N2CCCc3ccccc32)no1 | -3% | 0.37
Cc1ccc2c(c1)Oc1nc3ccccc3nc1O2 | 3% | -0.41
COc1ccc(CC(=O)N2CCC3(CC[C@@H]3O)CC2)cc1Cl | 36% | -4.6
OCC1(CNCc2ccc(OC[C@H]3CCCO3)cc2)CCC1 | -2% | 0.23
O=C(Cn1nnc2ccccc21)NCC1CCC1 | -5% | 0.73
Cc1cc2c(cc1S(=O)(=O)N(C)CC(=O)N1CCC(C)CC1)OCC(=O)N2 | -3% | 0.38
O=C1COc2cccnc2N1CCCOc1ccc(F)cc1 | 1% | -0.22
N#Cc1cccc(Cn2cnc3c2c(=O)n(Cc2ccco2)c(=O)n3-c2ccccc2)c1 | -9% | 1.39
CC[C@@H](C(=O)NC1CC1)N(c1ccc(OC)cc1)c1nc(C(C)(C)C)cs1 | 11% | -1.07
COc1ccc(OC)c(-c2cc(C(=O)NCC3CCN(C(=O)c4ccoc4)CC3)n(C)n2)c1 | -2% | 0.27
